Test results published in the antibiotic and cytotoxicity screens of Wong et al. (2023).
The list shows a part of the results.

system: HepG2; assay: cytotoxicity call (relative viability < 0.9); details: 10 µM

Row | SMILES | cytotoxicity call
1 | C[C@@H]1CN([C@H](C)CO)C(=O)Cc2cc(NS(=O)(=O)c3ccc(Cl)cc3)ccc2O[C@@H]1CN(C)Cc1ccc(C(F)(F)F)cc1 | inactive
2 | O=C1NCCOc2ccc([N+](=O)[O-])cc21 | inactive
3 | O=C(Nc1nc(OCCN2CCCC2=O)cnc1-c1cc(Cl)cc(Cl)c1)c1cc2ccccc2s1 | inactive
4 | Cc1noc(C)c1S(=O)(=O)N(C)C[C@H]1OCc2cn(nn2)CCCC(=O)N([C@H](C)CO)C[C@@H]1C | inactive
5 | COc1ccc([C@@H]([C@H](Cc2ccccc2)OC(C)=O)N2C[C@@H]3C(=NO[C@@H]3[C@@H](O)c3ccccc3)[C@@H]2Cc2ccccc2)cc1 | inactive

system: S. aureus RN4220; assay: growth inhibition call (relative growth <= 0.2); details: 50 µM

Row | SMILES | growth inhibition call
6 | CC(C)NC(=O)N(C)C[C@H]1Oc2ccc(NC(=O)c3ccncc3)cc2CC(=O)N([C@@H](C)CO)C[C@@H]1C | inactive
7 | C[C@H]1CCCCO[C@@H](CN(C)Cc2ccc3c(c2)OCO3)[C@@H](C)CN([C@@H](C)CO)C(=O)c2cc(NC(=O)Nc3ccc(C(F)(F)F)cc3)ccc2O1 | inactive
8 | C[C@H](CO)N1C[C@H](C)[C@H](CN(C)C(=O)Nc2cc(F)ccc2F)Oc2ncc(C#CCN(C)C)cc2C1=O | inactive
9 | C[C@@H]1CCCCO[C@@H](CN(C)Cc2ccc(C(F)(F)F)cc2)[C@H](C)CN([C@@H](C)CO)C(=O)c2cc(NC(=O)Nc3cccc4ccccc34)ccc2O1 | inactive
10 | CNC[C@@H]1Oc2ccc(NS(=O)(=O)c3cn(C)cn3)cc2CC(=O)N([C@@H](C)CO)C[C@@H]1C | inactive
11 | C[C@H](O)C1=C[C@]2(CC[C@@H]3C(C(=O)O)=CO[C@@H](O[C@@H]4O[C@H](CO)[C@@H](O)[C@H](O)[C@H]4O)[C@@H]32)OC1=O | inactive
12 | COc1ccccc1C#Cc1ccc2c(c1)O[C@@H](CN(C)Cc1cncnc1)[C@@H](C)CN([C@H](C)CO)S2(=O)=O | inactive
13 | COc1ccc(S(=O)(=O)Nc2ccc3c(c2)C(=O)N([C@H](C)CO)C[C@H](C)[C@H](CN(C)Cc2ccc(C(=O)O)cc2)OCCCC[C@H](C)O3)cc1 | inactive
14 | CCNc1nc(NCC)nc(OCC#N)n1 | inactive
15 | CC(=O)OCC[N+](C)(C)C.[Cl-] | inactive
16 | COc1ccc(C(C)=O)c(O)c1 | inactive
17 | Cc1ccc(S(=O)(=O)Nc2ccc3c(c2)C(=O)N([C@H](C)CO)C[C@H](C)[C@H](CN(C)Cc2ccc4c(c2)OCO4)OCCCC[C@H](C)O3)cc1 | inactive
18 | COc1ccc2c3c(n(c2c1)C)[C@H](CO)N(C[C@]13CN(Cc2cccc(c2)F)C1)C(=O)C1CCOCC1 | inactive
19 | CC(C)NC(=O)N(C)C[C@@H]1Oc2ccc(NC(=O)C3CCCCC3)cc2C(=O)N([C@H](C)CO)C[C@@H]1C | inactive
20 | C[C@H]1CN([C@@H](C)CO)C(=O)c2cccc(N(C)C)c2O[C@@H]1CN(C)S(=O)(=O)c1ccc(Cl)cc1 | inactive
21 | CO[C@@H]1CN(C)C(=O)c2ccc(NC(=O)NC(C)C)cc2OC[C@H](C)N(Cc2ccc(-c3ccccn3)cc2)C[C@H]1C | inactive
22 | COc1ccc(NC(=O)Nc2ccc3c(c2)C(=O)N([C@H](C)CO)C[C@@H](C)[C@H](CN(C)CC2CCCCC2)OCCCC[C@@H](C)O3)cc1 | inactive
23 | C[C@@H]1CN([C@@H](C)CO)C(=O)Cc2cc(NC(=O)c3ccncc3)ccc2O[C@@H]1CN(C)Cc1ccc(Oc2ccccc2)cc1 | inactive
24 | COc1ccc(NC(=O)N(C)C[C@@H]2Oc3c(NC(=O)C4CC4)cccc3C(=O)N([C@H](C)CO)C[C@H]2C)cc1 | inactive
25 | CO[C@@H](C(=O)N(C)C[C@@H]1OCc2ccccc2-c2c(n(C)c3ccccc23)C(=O)N([C@@H](C)CO)C[C@H]1C)c1ccccc1 | inactive

Row | SMILES | growth inhibition call
26 | C[C@@H]1CCCCO[C@H](CN(C)C(=O)C2CCCCC2)[C@@H](C)CN([C@@H](C)CO)C(=O)c2cc(NC(=O)c3ccncc3)ccc2O1 | inactive
27 | C[C@@H]1CCCCO[C@H](CN(C)C(=O)Nc2ccc(F)cc2)[C@@H](C)CN([C@H](C)CO)C(=O)c2cc(NC(=O)Nc3ccc(C(F)(F)F)cc3)ccc2O1 | inactive
28 | Cc1ccc(S(=O)(=O)Nc2cccc3c2O[C@H](CN(C)S(=O)(=O)c2cn(C)cn2)[C@@H](C)CN([C@H](C)CO)C3=O)cc1 | inactive
29 | C[C@H](CO)N1C[C@H](C)[C@@H](CN(C)S(=O)(=O)c2cn(C)cn2)Oc2c(NS(=O)(=O)c3ccccc3)cccc2C1=O | inactive
30 | C[C@@H]1CN([C@H](C)CO)C(=O)Cc2cc(NC(=O)Nc3ccc4c(c3)OCO4)ccc2O[C@@H]1CN(C)Cc1ccc(-c2ccccc2)cc1 | inactive
31 | COc1ccc(NC(=O)N(C)C[C@@H]2Oc3c(NC(=O)c4cnccn4)cccc3C(=O)N([C@@H](C)CO)C[C@@H]2C)cc1 | inactive
32 | C[C@H]1CN([C@@H](C)CO)C(=O)c2cccc(NC(=O)c3ccncc3)c2O[C@@H]1CN(C)Cc1ccc2c(c1)OCO2 | inactive
33 | C[C@H]1CN([C@@H](C)CO)C(=O)c2ccccc2-c2ccccc2CO[C@@H]1CN(C)Cc1ccccc1C(F)(F)F | inactive
34 | Cc1ccc(S(=O)(=O)N(C)C[C@@H]2Oc3ccc(NS(=O)(=O)c4ccc(F)cc4)cc3CC(=O)N([C@H](C)CO)C[C@@H]2C)cc1 | inactive
35 | C[C@H](CO)N1C[C@H](C)[C@H](CN(C)C(=O)Nc2ccc(C(F)(F)F)cc2)OCCCC[C@H](C)Oc2ccc(NC(=O)Cc3ccccc3)cc2C1=O | inactive
36 | CN(C)/C=C/C(=S)c1cccs1 | inactive
37 | C[C@H]1CCCCO[C@@H](CN(C)C(=O)C2CCCCC2)[C@@H](C)CN([C@@H](C)CO)C(=O)c2cc(NS(=O)(=O)c3cccs3)ccc2O1 | inactive
38 | CCCC#Cc1cnc2c(c1)C(=O)N([C@@H](C)CO)C[C@@H](C)[C@H](CN(C)C(=O)c1ccc3c(c1)OCO3)O2 | inactive
39 | CS(=O)(=O)Nc1ccc2c(c1)[C@H]1C[C@H](CC(=O)NCC3CC3)O[C@@H](CO)[C@H]1O2 | inactive
40 | C[C@@H]1CCCCO[C@H](CN(C)S(=O)(=O)c2ccc(F)cc2)[C@H](C)CN([C@@H](C)CO)C(=O)c2cc(NS(=O)(=O)c3cn(C)cn3)ccc2O1 | inactive
41 | C[C@@H]1CN([C@H](C)CO)C(=O)Cc2cc(NS(=O)(=O)c3ccc(Cl)cc3)ccc2O[C@@H]1CN(C)Cc1ccc(C(F)(F)F)cc1 | inactive
42 | O=C1NCCOc2ccc([N+](=O)[O-])cc21 | inactive
43 | O=C(Nc1nc(OCCN2CCCC2=O)cnc1-c1cc(Cl)cc(Cl)c1)c1cc2ccccc2s1 | inactive
44 | Cc1noc(C)c1S(=O)(=O)N(C)C[C@H]1OCc2cn(nn2)CCCC(=O)N([C@H](C)CO)C[C@@H]1C | inactive
45 | COc1ccc([C@@H]([C@H](Cc2ccccc2)OC(C)=O)N2C[C@@H]3C(=NO[C@@H]3[C@@H](O)c3ccccc3)[C@@H]2Cc2ccccc2)cc1 | inactive
